Assay results published in the supplement of paper PMC11417369.
± gives the standard deviation of the averaged measurements. The list shows a part of the results.

Tested on: PfAP2-LT AP2 domain (GST-tagged)
Assay: gcPBM binding intensity (ln(normalized median fluorescence intensity)); higher = stronger DNA binding
How it was run: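 An Agilent 4 × 180k array carrying primer-extended double-stranded 36-bp intergenic genomic probes and negative controls received GST-tagged P. falciparum DNA-binding domains expressed in E. coli, about 25 μg on average, for 1 h. The binding buffer contained 1× PBS, 1% milk, 0.2 mg/ml BSA, 0.5% salmon testes DNA and 0.03% Triton X-100. Binding intensity is the top Masliner-normalised natural-log median intensity across replicate spots of either probe orientation, read after Alexa488 anti-GST antibody staining and a 488 nm scan.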

Sequence | gcPBM binding intensity (ln)
ACATACATACACCCACGTACGTACCGAAACACCACC [XGTACX_site1212] | 9.41 ± 0.49
ATGATGTCTTTATATTGTACATATATGAAGACGTTA [XGTACX_site7751] | 8.54 ± 0.3
AGAATAAAAAGGAACACACACACACGCATATAAATA [CACACA_site7659] | 10.1 ± 0.39
TTAAAAAAAAATGGCACACATTTTAATTTTATGTTT [CACACA_site5035] | 8.52 ± 0.45
TTTATTTAATTCATTGCATGTAATTTTTGTGTCCAC [TGCATGCA_site677] | 8.84 ± 0.46
TTTTATGATAATTTTGCACACACTTAGGAAAAATTA [CACACA_site1556] | 8.96 ± 0.34
TTGTGATTATATAATCGTACATAATTTTAATCACAC [XGTACX_site398] | 8.73 ± 0.38
AAAAAAAAAAAAAACACACACATATCTATAATATAT [CACACA_site7481] | 9.35 ± 0.44
GAATATAAACATATTACACACATCTATATGTACTTT [CACACA_site8582] | 9.18 ± 0.38
CAAAACAAAGTTGCCGCACACAGATACGCACCCAAG [CACACA_site3455] | 9.35 ± 0.38
ATTTTTTCTAATGGGTGTACTGAAACGTATTTTATT [XGTACX_site6573] | 8.94 ± 0.42
ATTTATTTATATAATACACACAAATATCTTAATGAA [CACACA_site6064] | 8.62 ± 0.42
ATTTGTAATTATTAAACACACACAAAATATATATAA [CACACA_site8804] | 9.07 ± 0.38
GTAATATTATAATATACACACATAGAATATAAATAT [CACACA_site6333] | 9.12 ± 0.36
AAAATACACCAACACACACACATATATATATATATT [CACACA_site4149] | 9.91 ± 0.38
TTCAAGATTTATTATACACACATATTAATATATATA [CACACA_site573] | 8.71 ± 0.37
ATATAATATTGAGTTTGTACATATATATATGAAGAT [XGTACX_site4444] | 8.79 ± 0.4
TAGCCAAAATATAATTTACACACTTATTAAATAATT [CACACA_site7963] | 8.62 ± 0.46
AAAAAAAAAAAAAAATGTACATTATACACATTATAT [XGTACX_site6824] | 8.81 ± 0.32
AATTATGCATTTGTCACACATATATATTACACTTGC [CACACA_site5324] | 9.19 ± 0.42
ATTTTCCCTTGTTTTACACACGTGCTGATATGAGAT [CACACA_site2164] | 9.48 ± 0.32
AAATAAATATATATATGTACATACAAATACACGGTA [XGTACX_site8510] | 9.09 ± 0.4
AAGAAAAATGTCATATGATATCATATATTTTATAAT [TGCATGCA_negctrl_site296] | 8.61 ± 0.49

Sequence | gcPBM binding intensity (ln)
TATATAAATAGACACACACACACATATAAATAAATA [CACACA_site7855] | 10 ± 0.34
TTTCAATGCATAAAAGTGCGCAATAATTTAAAGATC | 9.03 ± 0.43
TATTTTATAAATACAAGTAAAATTAAATATATAATA [XGTACX_negctrl_site221] | 8.3 ± 0.47
AGGAGGATATTACACAGTACCCAGGAAATCTACGGA [XGTACX_site4878] | 8.85 ± 0.54
TTGTACTACAATCCTTTATTTATTTAAACCTGTATG [CACACA_negctrl_site428] | 8.64 ± 0.54
ATAATATATATTAATACACACACACCGATATATATA [CACACA_site9261] | 9.78 ± 0.17
GACCAATACTTTAAAAGTACAAACCTTATTTTATTT [XGTACX_site2718] | 8.73 ± 0.63
AAAAAAAAATAAAATAAAATAAAATAAAATAATATA [CACACA_negctrl_site1798] | 8.52 ± 0.64
ACATATGTATAATAATGTACGCATTAAATATAATTA [XGTACX_site7851] | 9.1 ± 0.32
AAACAAATGTACAAAGTGCATATTTTTTTCAAAAGG | 8.74 ± 0.46
TATATGTAATATTATACATGCATACATAATATATAT [TGCATGCA_site558] | 8.75 ± 0.35
TATGTGAATATAATCACACACAATACGGAAAGAGAC [CACACA_site7311] | 9.88 ± 0.46
TTTTTTTTTTATAAGGCACACATGAATATTTATACA [CACACA_site1316] | 8.67 ± 0.47
ACCCACGTAAATTAAGCATGCCTTCCGTTATATTTA [TGCATGCA_site365] | 9.11 ± 0.44
TTTTACTAAATATATACACACATTATGCATATATAT [CACACA_site3287] | 9.04 ± 0.46
TTTTAAAGAAAAAAATGTACAAAATTTTTATTTTAA [XGTACX_site1496] | 8.05 ± 0.64
AATGTGATAATATACACACACGCATATATATATATA [CACACA_site323] | 10 ± 0.085
AAAACACTTATGGATTGTACAATAAAAATTATATTA [XGTACX_site7042] | 8.89 ± 0.49
CTGTGTAATTTAAATTGTACGTTTGAAAAAAATAAA [XGTACX_site5667] | 8.52 ± 0.38
TTCTGTGTGTATTGGCGTACAATTATTTTGCCTACA [XGTACX_site205] | 9.17 ± 0.34
ACATTCACAAAATTTTGTACACATATATATATATAT [XGTACX_site3518] | 9.585 ± 0.035
GTATTATCTGCTTTTTGTACACATATATTTAAAAAA [XGTACX_site7603] | 8.72 ± 0.4
TAAATCATGGGATAAGCATGCGCGCACATGTTTGTT [TGCATGCA_site768] | 9.05 ± 0.37

Sequence | gcPBM binding intensity (ln)
TTTATTTATTAAGAATGTACATGTATTTGTTAAATA [XGTACX_site4465] | 8.35 ± 0.44
CCATTTGATAATAATGCACACCACATATATTTATAT [CACACA_site9002] | 9.11 ± 0.43
CGATTTTTTAAGTTTGTGCACTTAAAAACTATAACA | 8.53 ± 0.47
AAAAGGAATTATAGGAAATAAATATATACAAATATA [TGCATGCA_negctrl_site528] | 8.69 ± 0.58
TATATGTCAATATCTACACACATATAGGTAATTATT [CACACA_site7475] | 9.05 ± 0.38
TATACTATACAACACATACACACAAAAAAAAAAAAA [CACACA_site537] | 9.21 ± 0.43
TATTTCAAAATAAAATAAAATATATATATATGTATA [XGTACX_negctrl_site416] | 8.36 ± 0.49
CAAAAATAATTTAGGTGTACAAATTTGACAAAAAAA [XGTACX_site188] | 8.84 ± 0.35
AATTCAATTGAGCAAAATTCAAATAAATTAAAAAGA [XGTACX_negctrl_site71] | 8.54 ± 0.72
TGATAATATTATATATGTACATATATGTATATTTTT [XGTACX_site7193] | 8.73 ± 0.42
ATGAAACACTCCATAGTGCAAAATATATATTATATT | 8.9 ± 0.45
CTATTTTTCCTGAAATGTACAAGAATTTTATTTGAT [XGTACX_site8867] | 8.52 ± 0.4
TTGGTATATTATAAAAGTACACATAATAAAAAATTT [XGTACX_site7985] | 8.62 ± 0.4
ATATGGGTGAACATATGTACATATATATATTGATAA [XGTACX_site8438] | 8.96 ± 0.45
CCTAAAGTGTAAAATTCACACACATATATATATATA [CACACA_site8385] | 9.78 ± 0.16
TTTATTTATAGGTATACACACTTTAATTAAAAGTTG [CACACA_site7232] | 8.62 ± 0.4
TTTATTTTTGAAGTTGCACACACAAAAATAAAAAGT [CACACA_site8030] | 8.98 ± 0.3
TAATTTGTTATGTATTGTACAAATAATATATGATAT [XGTACX_site1985] | 8.62 ± 0.35
ATTAAAAAAATATACGCACACAAAATGTAATAACAA [CACACA_site2439] | 9.21 ± 0.36
TTTTGTTTAAAAAAAAAAAACAAAAAAAAGCAATTA [CACACA_negctrl_site314] | 8.19 ± 0.42
TTACATAATTTATGTACACACGCAAATACTTATAAT [CACACA_site4331] | 8.95 ± 0.4
ATAACTATAATAATCATACACACCAAAGAGAATATT [CACACA_site6970] | 9.13 ± 0.38
ATTTTTCATTCTGGACATGTTACCATTATATATATG [CACACA_negctrl_site61] | 9.23 ± 0.39

Sequence | gcPBM binding intensity (ln)
ATTATTACTTTTTGAGTGCACATACACACAGACATA | 9.14 ± 0.23
AGTAGTCTGGAGAAGAGTACACAGTATCTGGTAGCT [XGTACX_site2042] | 8.8 ± 0.38
ACATTAACATTGTTGGTGCAAAATTAATATGTTTTT [GTGCAC_site9673] | 8.75 ± 0.44
TTAAATATTTTTTATACACACATTTCTTATTTAACT [CACACA_site229] | 8.88 ± 0.54
TAATTATTATTAATAGTACACACTATGGCATTTCAA [CACACA_site2488] | 8.71 ± 0.43
CAAACATATTAATGTACACACACCCACCCACAAACA [CACACA_site2752] | 10.2 ± 0.29
TATTATATATATATATGTACATATTGTATGTTATAT [XGTACX_site5303] | 9.16 ± 0.4
TTTTTTTCAATATTTGCACACGATTAAAATATTTAA [CACACA_site5266] | 8.71 ± 0.38
TATGTGAATATTGAGGTGCGGTTGTTAAAATTTATA [GTGCAC_site9915] | 8.79 ± 0.19
ATTATTCAGGTAAAGTGTACAGGAGAAAAATAAAAT [XGTACX_site334] | 8.94 ± 0.6
ATATATATATATATATGTACGTATAATATATATATG [XGTACX_site2212] | 9.465 ± 0.078
CGCACCCAAATATATACACACATATATATATATATA [CACACA_site1651] | 10.1 ± 0.16
ATTGTAAGGAAACACACACACATATATATGTATATA [CACACA_site676] | 9.68 ± 0.29
AAATAAATACTAGGCACACACACATATATATATATA [CACACA_site2079] | 10.1 ± 0.15
TATATGTTTAATTTCACACACAAATATGCATTTTAA [CACACA_site7881] | 9.04 ± 0.36
ATTATTGTAATATTAGCACACATTACCTCACTACAA [CACACA_site2560] | 9.03 ± 0.44
AAATTTGCTTTACCAGTGCAAAAAAAAAAAAAAAAA | 8.58 ± 0.42
AAATCACATAAAAATAGTACTTTTTTTTTTTTTTTT [XGTACX_site2696] | 8.57 ± 0.34
TGTTTTTATCCTTATGGTACAGTATAATACTTACAG [XGTACX_site6381] | 8.8 ± 0.41
GGAAAATGAAAACAAGGTACACATAAGAACAAACAA [XGTACX_site1221] | 9.32 ± 0.64
AATAGGGTCATTCAAAAAAAAAAAAAATAATAATAC [CACACA_negctrl_site644] | 8.6 ± 0.58
